# Experimental data taken from article PMC4336329 (PLoS ONE, 2015).
# The campaign covered roughly 310,000 compounds. About 14,000 (4.5%) showed an effect of 50% or more. The effect is printed as a negative number. Some of the results follow.
# Target: human ether-à-go-go-related gene (hERG) potassium channel (human, UniProt Q12809)
# Experiment: primary screen, population patch clamp on CHO cells stably expressing hERG
# 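Note: peak tail current of the secondary pulse compared with the same well before compound.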
# human ether-à-go-go-related gene (hERG) potassium channel, sequence (Q12809 whole entry, looked up): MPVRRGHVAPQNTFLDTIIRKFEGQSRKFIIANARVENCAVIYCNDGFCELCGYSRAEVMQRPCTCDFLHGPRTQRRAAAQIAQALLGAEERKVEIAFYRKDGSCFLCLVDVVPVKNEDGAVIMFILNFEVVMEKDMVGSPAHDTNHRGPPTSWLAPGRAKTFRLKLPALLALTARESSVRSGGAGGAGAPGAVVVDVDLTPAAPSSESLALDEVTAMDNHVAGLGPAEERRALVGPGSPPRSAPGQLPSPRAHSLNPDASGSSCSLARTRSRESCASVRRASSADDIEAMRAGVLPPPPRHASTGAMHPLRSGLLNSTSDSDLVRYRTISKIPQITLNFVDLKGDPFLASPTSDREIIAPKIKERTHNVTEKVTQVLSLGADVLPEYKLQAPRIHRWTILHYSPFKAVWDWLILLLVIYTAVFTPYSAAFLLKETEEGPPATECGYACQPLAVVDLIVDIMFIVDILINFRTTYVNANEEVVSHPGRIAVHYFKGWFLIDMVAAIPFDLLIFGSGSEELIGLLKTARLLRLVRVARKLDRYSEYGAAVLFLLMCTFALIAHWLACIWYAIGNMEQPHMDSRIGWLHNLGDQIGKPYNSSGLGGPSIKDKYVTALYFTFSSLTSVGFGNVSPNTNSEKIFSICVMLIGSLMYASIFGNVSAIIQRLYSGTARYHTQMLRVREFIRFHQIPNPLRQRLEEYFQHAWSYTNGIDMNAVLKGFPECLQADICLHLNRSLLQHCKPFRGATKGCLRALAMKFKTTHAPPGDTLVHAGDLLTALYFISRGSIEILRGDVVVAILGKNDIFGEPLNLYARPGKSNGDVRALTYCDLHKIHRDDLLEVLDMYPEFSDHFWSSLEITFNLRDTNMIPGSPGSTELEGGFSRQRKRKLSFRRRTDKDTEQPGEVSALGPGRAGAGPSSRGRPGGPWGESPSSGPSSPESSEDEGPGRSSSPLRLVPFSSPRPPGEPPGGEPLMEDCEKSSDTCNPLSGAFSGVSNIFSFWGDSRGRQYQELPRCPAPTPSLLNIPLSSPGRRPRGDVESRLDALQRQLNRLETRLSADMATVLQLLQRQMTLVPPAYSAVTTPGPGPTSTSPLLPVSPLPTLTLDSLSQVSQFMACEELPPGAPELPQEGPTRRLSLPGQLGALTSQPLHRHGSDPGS
row,Compound,"hERG current change (%, negative = inhibition) at 10uM"
1,CC(C)c1ncc(C(O)c2ccccc2)n1C (centres unmarked),14.1%
2,COc1ccc(C(C)=O)cc1CSc1nnc(Nc2c(C)cccc2C)s1,-45.5%
3,O=C(O)c1ccc(-c2noc(-c3cccc(C(F)(F)F)c3)n2)cc1,23%
4,CCCCc1nnc(NC(=O)C2CCCO2)s1 (centres unmarked),-3.68%
5,Cc1ccc(C(=O)OCC(=O)NC2CCCCC2)o1,3.03%
6,CC(C)OCCCNC(=S)N1CCC(C(=O)c2ccc3c(c2)OCCO3)CC1,-22.9%
7,COc1ccc(CN2CCN(CC3CC3)CC2CCO)c(C)c1C (centres unmarked),-0.714%
8,COc1ccc(N2CCN(CCCNC(=O)C3(S(=O)(=O)c4ccc(Cl)cc4)CC3)CC2)cc1,-61.5%
9,Cl.c1cncc(CNCc2ccco2)c1,23.5%
10,C[C@@H]1C=C(C(=O)NCc2ccccc2)O[C@H](OCc2ccc(CO)cc2)C1,3.74%
11,Nc1ccc(-c2cnc3ccccc3n2)cc1,0.217%
12,O=C(CSCC(=O)N1CCOCC1)Nc1nc(-c2ccccc2)cs1,-14.8%
13,C#CCNC(=O)C1=C[C@H](c2coc3ccccc3c2=O)C[C@H](OCc2ccc(CO)cc2)O1,-49.8%
14,N/C(Cn1cncn1)=N\NC(=O)C(=O)Nc1ccc(Cl)cc1Cl,7.64%
15,CC[C@@H](CO)C1CC2NC3CC4(c5ccccc5N(C)[C@@H]24)C(O)C31 (some centres unmarked),-19.6%
16,Fc1ccccc1CNCCc1ccc2c(c1)OCO2,-7.43%
17,CC(C)(C)c1cc(S(=O)(=O)CCc2ccncc2)cc(C(C)(C)C)c1F,18.5%
18,CCCCNc1nnc(CCn2nc(C)c(Br)c2C)s1,-19.5%
19,O=C(Nc1nnc(COc2ccc(Cl)cc2)s1)c1cccs1,-6.91%
20,CSc1ccccc1NC(=O)c1cc2c(=O)n3ccccc3nc2s1,1.31%
21,Cn1c(=O)n(C)c2cc(/C=N/n3cnnc3)ccc21,-3.11%
22,CCOC(=O)c1cc(-c2ccc(OC)cc2)n[nH]1,7.23%
23,CCCc1cc(=O)oc2c(C)c(OCC(=O)Nc3ccccn3)ccc12,-5.2%

row,Compound,"hERG current change (%, negative = inhibition) at 10uM"
1,Cc1cc(OCC(=O)Nc2ccccc2N2CCCCC2)ccc1C(C)C,12.4%
2,c1ccc(C2(c3ccccc3)OCC(Cn3cncn3)O2)cc1 (centres unmarked),-0.819%
3,CCOc1ccc(NC(=O)CN2C(=O)CSC(C)C2=O)cc1 (centres unmarked),12.2%
4,Cl.Clc1ccccc1CN1CCNCC1,1.68%
5,Cc1ccc(S(=O)(=O)N2CCC(C(=O)NCCCN3CCCC3=O)CC2)cc1C,7.98%
6,CCCOc1cc(NCc2ccccc2)c2ncn(C(C)C)c2c1,0.563%
7,COc1ccccc1OCC#CCN1CCCCCC1.O=C(O)C(=O)O,12%
8,Cc1ncc(CO)c(/C=N/N=C/c2ccccc2O)c1O,13.7%
9,Cc1c(=O)n(OCc2ccc(Cl)cc2)c2ccccc2[n+]1[O-],6.09%
10,O=C(O)C(=O)O.O=[N+]([O-])c1cccc(CN2CCN(Cc3ccc(Cl)cc3)CC2)c1,-70.8%
11,CCN(CC(=O)NC1CCS(=O)(=O)C1)Cc1nc2c(Br)cc(Br)cc2c(=O)[nH]1 (centres unmarked),-0.153%
12,C/C(=N\NC(=O)C1COc2ccccc2O1)c1ccc(N2CCOCC2)cc1 (centres unmarked),-11.1%
13,O=C(NCCc1ccccc1)c1ccc(Br)o1,-15.4%
14,Cc1ccc(C)c(NC(=O)CN(C)C(=O)[C@@H](NC(N)=O)C(C)C)c1,19%
15,Cc1ccc(NC(=O)c2cnccn2)c(Br)c1,12.8%
16,CCOC(=O)c1cc2nc(Nc3ccc(OC)cc3)sc2s1,0.75%
17,CSc1cccc(NC(=O)COC(=O)c2ccccn2)c1,-5.55%
18,CCc1c(C)sc(NC(=S)Nc2cccnc2)c1C(=O)OC,15%
19,CCCN1CCC(=O)N([C@H](CO)CC(C)C)CC1,20%
20,CC(C)C(=O)Nc1cccc(C(=O)Nc2nncs2)c1,-6%
21,COC(c1ccccc1)c1c(-c2ccccc2)nn(C)c1Cl (centres unmarked),-8.59%
22,COCCNC(=O)C(c1cccs1)N(C(=O)Cn1nnc2ccccc21)c1ccc(OC)cc1 (centres unmarked),3.99%
23,CCn1c(CCNC(=O)c2ccco2)nc2ccccc21,-3.04%

row,Compound,"hERG current change (%, negative = inhibition) at 10uM"
1,CC(C)c1[nH]c(=O)c(C#N)c2c1CSC(C)(C)C2,8.38%
2,CC(NS(=O)(=O)c1ccc(Br)cc1)c1ccccc1 (centres unmarked),10.6%
3,COC(=O)COc1cc(OCC(=O)OC)c2c(C)c(Cl)c(=O)oc2c1,3.64%
4,CCCNC(=O)N1[C@H]2CC[C@@H]1C(C(=O)OC)=C(c1ccc(OC(F)(F)F)cc1)C2,-27.4%
5,Cc1cccc(C(=O)Nc2nnc(COc3ccccc3)s2)c1,5.6%
6,CO/N=C(/C(=O)N[C@@H]1C(=O)N2C(C(=O)[O-])=CCS[C@H]12)c1cnc(N)s1.[Na+],19.1%
7,Cn1c(=O)cc(SCC(=O)NCc2ccc(F)cc2)c2ccccc21,-17.4%
8,O=C1c2ccccc2-c2nc3ccccc3cc21,18.3%
9,CC(OC(=O)CCc1nc2ccccc2[nH]c1=O)c1ccccc1 (centres unmarked),-5.1%
10,Cc1c(OCc2nn[nH]n2)ccc2c3c(c(=O)oc12)CCCC3,-4.83%
11,CC1=NN(C(=O)CCc2ccccc2)C(O)(c2ccncc2)C1 (centres unmarked),3.31%
12,CCOc1ccc(CC(=O)NCCS(=O)(=O)N2CCN(c3ccccc3)CC2)cc1,11.2%
13,CC(C)(C)NC(=O)c1cc(NC(=O)c2cccs2)cc(NC(=O)c2cccs2)c1,1.07%
14,Cc1c(Cl)cccc1-n1c(SCC(=O)NCc2cccs2)nnc1-c1ccncc1,-29.1%
15,O=C(CSc1nnnn1C1CCCCC1)NCc1ccco1,4.92%
16,O=C(CCc1nnc2ccc(NCc3ccco3)nn12)Nc1ccc(F)cc1F,-4.76%
17,COc1ccc(Cl)cc1C(=O)NC(C)C,2.67%
18,Cc1ccccc1NC(=O)Cn1nnc2c(cnn2-c2ccc(F)cc2)c1=O,1.68%
19,COCCn1c(=O)c2ccccc2c2ccccc2c1=O,10.2%
20,O=C1CC(N(CCc2ccccc2)C(=S)Nc2ccccc2)C(=O)N1c1ccc(Br)cc1 (centres unmarked),-4.13%
21,CCOC(=O)C1CCCN(C(=O)Cn2ncc3c([nH]c4ccc(C)cc43)c2=O)C1 (centres unmarked),-11.1%
22,COc1cc2c3c([nH]c2cc1F)C(=O)NCC3,7.72%
23,Cc1ccc(S(=O)(=O)CC(=O)N(C)C)cc1,7.19%

row,Compound,"hERG current change (%, negative = inhibition) at 10uM"
1,O=C(COC(=O)c1ccccc1-n1cnnn1)c1ccccc1,4.94%
2,O=C(CN1CCN(c2ccccc2F)CC1)c1c[nH]c2ccc(F)cc12,-11.7%
3,CSCC[C@H](NC(=O)C1=NN(c2c(F)c(F)cc(F)c2F)C(=O)CC1)c1nc2ccccc2[nH]1,-13.3%
4,CC1(C)Cc2c(sc3nc(-c4ccccc4Cl)n(N)c(=O)c23)CO1,-0.307%
5,O=C(CCl)N(c1ccccc1)c1c[nH]c2ccccc12,3.24%
6,CCN(CC)C(=O)CN(c1cc2c(cc1OC)oc1ccccc12)S(=O)(=O)c1ccccc1,0.38%
7,CCSCc1nnc(SCC(=O)Nc2nccs2)n1CC,8.61%
8,O=C(NCC1CCCO1)c1ccc(NC(=O)c2ccc(Br)cc2)cc1 (centres unmarked),9.76%
9,NS(=O)(=O)c1ccc(NC(NC(=O)c2cccnc2)C(Cl)(Cl)Cl)cc1 (centres unmarked),6.08%
10,CC(C)(C)c1ccc(C(=O)N/N=C/c2ccc(OCCCF)cc2)cc1,3.03%
11,Cc1cc(Nc2cc(Cl)cc(Cl)c2)nc(N)n1,-29.6%
12,Cc1nc2ccccc2n1C(=O)N1CCOCC1,5.96%
13,CC(C)(C)c1ccc(CCC2OCC(CN3CCOCC3)O2)cc1 (centres unmarked),-7.38%
14,CC(=O)NS(=O)(=O)c1ccc(NC(=O)/C=C/c2ccccc2)cc1,6.8%
15,O=C(C1CC(=O)N(c2ccc(F)cc2)C1)N1CCN(c2ccccc2)CC1 (centres unmarked),-58.3%
16,CCc1nnc(SCC(=O)Nc2ccccc2)n1CC1CCCO1 (centres unmarked),2.61%
17,CC(C)c1nnc(NC(=O)COC(=O)/C=C/c2ccc([N+](=O)[O-])cc2)s1,-4.83%
18,CCOc1ccc(/C=C/c2[nH]c(=O)[nH]c(=O)c2[N+](=O)[O-])cc1,8.01%
19,O=C(CCC(=O)N(CC(=O)NC1CCCCC1)Cc1ccccc1)Nc1ccccn1,4.24%
20,CC1(C)Cc2c(sc3c2C(=O)N(c2ccccc2)C2=NCCN23)CS1.Cl,-5.58%
21,Cc1ccc(Cn2ccc(NC(=O)c3cc(-c4ccc(Br)cc4)on3)n2)cc1,22.6%
22,CC(C)[N+]1(C)[C@@H]2CC[C@H]1CC(OC(=O)C(CO)c1ccccc1)C2.O.[Br-] (some centres unmarked),5.51%
23,COc1cc(C(=O)OCc2cccc(OC)c2OC)ccc1OCC(=O)N1CCOCC1,-22.9%
